According to US20200385445A1 (COMPUGEN, published 2020):

Molecular target: T1, human PVRL2-His (Catalog #2229-N2-050/CF, R&D Systems) (human, UniProt Q92692 32-360)
T1 construct: Bought (R&D Systems); also called His-tagged PVRL2 recombinant protein; PVRL2 (CD112)
T1 sequence (looked up): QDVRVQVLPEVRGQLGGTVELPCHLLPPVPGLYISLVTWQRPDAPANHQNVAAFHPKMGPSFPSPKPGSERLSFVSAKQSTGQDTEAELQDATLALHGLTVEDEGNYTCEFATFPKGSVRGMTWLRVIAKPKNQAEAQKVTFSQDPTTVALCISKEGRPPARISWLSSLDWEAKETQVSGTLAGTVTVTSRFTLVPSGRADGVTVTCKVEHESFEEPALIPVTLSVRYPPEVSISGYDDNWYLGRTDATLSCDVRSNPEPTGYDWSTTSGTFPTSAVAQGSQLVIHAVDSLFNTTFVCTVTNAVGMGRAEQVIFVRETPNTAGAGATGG
Assay: ELISA, PVRIG H:H titrated on coated His-tagged PVRL2, one-site binding fit

Kd: 13 nM
B1: PVRIG hECD-hIg fusion protein (ECD of human PVRIG fused to the Fc of human IgG1 bearing C220, C226 and C229 to S mutations at the hinge) (Fc fusion)
chain: TPEVWVQVRMEATELSSFTIRCGFLGSGSISLVTVSWGGPNGAGGTTLAVLHPERGIRQWAPARQARWETQSSISLILEGSGASSPCANTTFCCKFASFPEGSWEACGSLPPSSDPGLSAPPTPAPILRAD[omitted - human IgG1 Fc with changes]
notes: also called PVRIG H:H; PVRIG-ECD-Ig
